In the supplement of paper PMC9446081:
Out of some 39,000 compounds screened, about 220 (0.56%) showed activity. Some of the results follow.

Test system: Escherichia coli K-12 BW25113
Assay: relative growth (OD600 normalised to plate interquartile mean) (fraction); higher = less growth inhibition, active = 0.2 or less
Settings: 50 µM; LB; incubation time: overnight (16-24 h)
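Also: static incubation at 37 °C against the wild-type strain, values averaged over two biological replicates.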

Compound | relative growth
C[C@H](CO)N1C[C@H](C)[C@H](CN(C)C(=O)c2ccc(N3CCN(C)CC3)cc2)OCc2cnnn2CCCC1=O | inactive: 0.994
C=CC[C@H](CC(=O)NCCO)C(=O)NC[C@H](OC(=O)[C@H](CC=C)CC(=O)OC(C)(C)C)c1ccccc1 | inactive: 1.01
Cc1noc(C)c1S(=O)(=O)Nc1ccc2c(c1)C(=O)N([C@@H](C)CO)C[C@H](C)[C@H](CN(C)CC1CC1)O2 | inactive: 0.999
C[C@@H]1CN([C@H](C)CO)C(=O)c2cccc(NC(=O)Nc3ccc(F)cc3)c2O[C@@H]1CN(C)Cc1ccc(Oc2ccccc2)cc1 | inactive: 1.05
C[C@@H]1CCCCO[C@@H](CN(C)Cc2ccncc2)[C@H](C)CN([C@@H](C)CO)C(=O)c2cc(NS(=O)(=O)c3ccc(Cl)cc3)ccc2O1 | inactive: 1.01
C[C@@H]1CN([C@@H](C)CO)S(=O)(=O)c2ccc(C#Cc3cccc(F)c3)cc2O[C@H]1CN(C)S(=O)(=O)c1ccccc1F | inactive: 0.97
CC(C)CC#Cc1ccc2c(c1)O[C@H](CN(C)Cc1cncnc1)[C@H](C)CN([C@@H](C)CO)S2(=O)=O | inactive: 1.01
N#C/C(=C\c1ccc(C(F)(F)F)cc1)c1c[nH]c2ccccc12 | inactive: 1.02
O=C(c1ccccc1F)N1c2ccccc2Sc2ccccc21 | inactive: 1.01
C[C@@H]1CN([C@@H](C)CO)C(=O)c2cc(NS(=O)(=O)c3ccc(Cl)cc3)ccc2O[C@@H]1CN(C)Cc1ccc(C(F)(F)F)cc1 | inactive: 1.02
C[C@@H]1CN([C@@H](C)CO)C(=O)Cc2cc(NS(=O)(=O)c3ccccc3)ccc2O[C@H]1CN(C)Cc1ccc(C(=O)O)cc1 | inactive: 0.986
C[C@@H]1CN([C@H](C)CO)C(=O)c2cc(NC(=O)C3CC3)ccc2O[C@H]1CN(C)Cc1ccc2c(c1)OCO2 | inactive: 0.997
C[C@@H]1CCCCO[C@H](CN(C)Cc2ccc3c(c2)OCO3)[C@@H](C)CN([C@@H](C)CO)C(=O)c2cc(NC(=O)CCC(F)(F)F)ccc2O1 | inactive: 1.01
CN1C(=O)c2cc(NC(=O)c3cccs3)ccc2OC[C@H]2O[C@H](CC(=O)NCCN3CCCCC3)CC[C@H]21 | inactive: 1.01
CCS(=O)(=O)N1CC[C@]2(CC1)CN([C@@H](CO)c1[nH]c3cc(ccc3c12)OC)S(=O)(=O)c1cccc(c1)OC | inactive: 0.986
C[C@H](CO)N1C[C@H](C)[C@@H](CN(C)S(C)(=O)=O)Oc2ccc(NS(C)(=O)=O)cc2C1=O | inactive: 0.898
CCCNC(=O)Nc1ccc2c(c1)C(=O)N(C)C[C@H](OC)[C@H](C)CN(Cc1ccc(-c3ccccn3)cc1)[C@@H](C)CO2 | inactive: 1.01
C[C@@H]1CN([C@H](C)CO)C(=O)Cc2cc(NC(=O)CCN3CCOCC3)ccc2O[C@@H]1CN(C)Cc1ccc(C(=O)Nc2ccccc2N)cc1 | inactive: 0.991
Cc1noc(C)c1NC(=O)N(C)C[C@@H]1Oc2ccc(NC(=O)Nc3cccc4ccccc34)cc2C(=O)N([C@@H](C)CO)C[C@H]1C | inactive: 0.988
C[C@@H]1CN([C@@H](C)CO)C(=O)c2cc(NS(=O)(=O)c3cn(C)cn3)ccc2O[C@@H](C)CCCCO[C@@H]1CN(C)C(=O)CCCN(C)C | inactive: 0.917
C=C[C@](C)(O)CCC=C(C)C | inactive: 0.986

Compound | relative growth
CC(C)(C)[S@@](=O)N1Cc2cc(C(=O)N3CCCCC3)nc(-c3cccc(-c4ccccc4F)c3)c2[C@H]1CCO | inactive: 1
C[C@@H]1CN([C@H](C)CO)C(=O)c2cc(NC(=O)CCC(F)(F)F)ccc2O[C@H]1CN(C)Cc1ccc(Oc2ccccc2)cc1 | inactive: 0.998
C=CC(=O)N1C[C@@H]2CC[C@H](O)[C@@H]2C1 | inactive: 1
Cn1c(-c2ccccc2)c[nH]c1=S | inactive: 1.01
CC(C)[Si](OCC[C@H]1O[C@]2(C(=O)N(Cc3ccccc3)c3ccccc32)[C@@H](C)[C@@H]1[Si](C)(C)O)(C(C)C)C(C)C | inactive: 1.01
C[C@@H]1CN([C@@H](C)CO)C(=O)Cc2cc(NC(=O)Nc3ccc(C(F)(F)F)cc3)ccc2O[C@H]1CN(C)Cc1ccc(C(=O)O)cc1 | inactive: 0.938
COc1cc2nccc(Oc3ccc(NC(=O)C4(C(=O)Nc5ccc(F)cc5)CC4)cc3)c2cc1OC | inactive: 0.971
Cc1ncc([N+](=O)[O-])n1CC(O)CCl (stereo not drawn) | inactive: 1.1
C[C@@H]1CN([C@@H](C)CO)C(=O)c2cccc(NC(=O)c3ccc(-c4nccs4)cc3)c2O[C@H]1CN(C)Cc1ccc(C(F)(F)F)cc1 | inactive: 1.01
COc1ccc(NC(=O)N(C)C[C@H]2Oc3ncc(C#CC(C)C)cc3C(=O)N([C@@H](C)CO)C[C@H]2C)cc1 | inactive: 1.03
O=C(/C=C/c1ccc(O)c(O)c1)O[C@]1(C(=O)O)C[C@@H](O)[C@H](O)[C@H](O)C1 | inactive: 1.03
COc1ccc(CN(C)C[C@H]2OCCCC[C@@H](C)Oc3ccc(NC(=O)C4CCCCC4)cc3C(=O)N([C@H](C)CO)C[C@H]2C)cc1 | inactive: 0.995
C[C@H]1CN([C@@H](C)CO)C(=O)Cc2cc(NC(=O)Nc3ccc(C(F)(F)F)cc3)ccc2O[C@H]1CN(C)Cc1ccc(C(=O)O)cc1 | inactive: 0.974
C[C@@H]1CN([C@@H](C)CO)C(=O)c2cc(NS(=O)(=O)c3ccccc3)ccc2O[C@@H](C)CCCCO[C@H]1CN(C)C(=O)Nc1ccc(C(F)(F)F)cc1 | inactive: 0.995
Oc1ccc(C2(c3ccccc3F)CCC(F)(F)CC2)cc1 | inactive: 0.909
NCc1nnnn1C1CCCCC1 | inactive: 0.982
CC(C)NC(=O)Nc1ccc2c(c1)CC(=O)N([C@H](C)CO)C[C@H](C)[C@H](CN(C)Cc1ccc(Oc3ccccc3)cc1)O2 | inactive: 1.02
CN1C(C(=O)Nc2ccccn2)=C(O)c2sccc2S1(=O)=O | inactive: 1.03
C[C@H](CO)N1C[C@H](C)[C@@H](CN(C)C(=O)Cc2ccncc2)Oc2ncc(C#CC3(O)CCCC3)cc2C1=O | inactive: 1.02
C(=N\n1cnnc1)/c1ccccn1 | inactive: 1.02
COc1ccc(CN(C)C[C@H]2Oc3ccc(NS(=O)(=O)c4c(C)noc4C)cc3C(=O)N([C@H](C)CO)C[C@@H]2C)cc1 | inactive: 1

Compound | relative growth
C[C@@H]1CN([C@@H](C)CO)C(=O)c2cc(NC(=O)Nc3ccc(C(F)(F)F)cc3)ccc2O[C@@H](C)CCCCO[C@@H]1CN(C)C(=O)NC1CCCCC1 | inactive: 1.06
O=C(C[C@@H]1CC[C@@H]2[C@H](COC[C@H](O)CN2S(=O)(=O)c2ccccc2F)O1)N1CCC(Cc2ccccc2)CC1 | inactive: 1.01
Cc1ccc(S(=O)(=O)Nc2cccc3c2O[C@@H](CN(C)C(=O)Nc2cccc4ccccc24)[C@@H](C)CN([C@H](C)CO)C3=O)cc1 | inactive: 0.978
O=C(C[C@H]1CC=CCCC(=O)OCCNC1=O)NCCO | inactive: 0.998
CC(C)C(C)C=CC(C)C1CCC2C3=CC=C4CC(O)CCC4(C)C3CCC21C (stereo not drawn) | inactive: 0.974
COc1cc(OC)c2c(OC)c(-c3ccc4c(c3)OCO4)c(=O)oc2c1 | inactive: 0.941
COc1cccc(S(=O)(=O)N(C)C[C@H]2Oc3ncc(-c4cccc(C(=O)N(C)C)c4)cc3C(=O)N([C@@H](C)CO)C[C@@H]2C)c1 | inactive: 0.999
C[C@H](CO)N1C[C@H](C)[C@@H](CN(C)CC2CC2)OCCCC[C@H](C)Oc2ccc(NC(=O)Nc3ccc(C(F)(F)F)cc3)cc2C1=O | inactive: 1.01
C[C@@H]1CN([C@H](C)CO)C(=O)c2cc(/C=C/c3ccccc3)cnc2O[C@@H]1CN(C)C(=O)Nc1ccc(C(F)(F)F)cc1 | inactive: 0.973
CCNC(=S)N1CCC[C@H](C(N)=O)C1 | inactive: 0.951
COc1ccc(C2C(=O)c3ccccc3C2=O)cc1 | inactive: 0.958
CNC(=O)CN1C(=O)[C@@H]2[C@@H](C1=O)[C@@H]1C=C[C@@H]2C1 | inactive: 0.983
CCOC(=O)c1cn(C[C@H](Cc2ccccc2)NC(=O)N[C@H](CO)CCc2oc(C(C)=O)c(C(=O)OC)c2C(=O)OC)nn1 | inactive: 1.04
C[C@H]1CN([C@@H](C)CO)C(=O)c2cc(NC(=O)Nc3cccc4ccccc34)ccc2O[C@@H]1CN(C)Cc1ccc(-c2ccccc2)cc1 | inactive: 0.993
O=C(O)c1ccc(/C2=C3\C=CC(=N3)/C(c3ccc(C(=O)O)cc3)=c3/cc/c4[n]3[Mn+][n]3c2ccc3/C(c2ccc(C(=O)O)cc2)=C2/C=CC(=N2)\C=4c2ccc(C(=O)O)cc2)cc1 | inactive: 0.999
COCC(=O)N(C)C[C@@H]1Oc2cc(C#Cc3ccccc3)ccc2S(=O)(=O)N([C@H](C)CO)C[C@H]1C | inactive: 1.01
COc1ccc(S(=O)(=O)N(C)C[C@@H]2Oc3ccc(NC(=O)Nc4cccc5ccccc45)cc3C(=O)N([C@@H](C)CO)C[C@@H]2C)cc1 | inactive: 1
COc1ccc(S(=O)(=O)Nc2ccc3c(c2)CC(=O)N([C@H](C)CO)C[C@@H](C)[C@@H](CN(C)Cc2ccc(Oc4ccccc4)cc2)O3)cc1 | inactive: 0.981
CC(C)[C@@H](CO)N1C(=O)[C@@H]2[C@H]3C(=O)OCCC/C=C\[C@H]3O[C@]23C=CCN(Cn2nnc4ccccc42)C(=O)[C@@H]13 | inactive: 0.987
CC(C)NC(=O)Nc1ccc2c(c1)CC(=O)N([C@H](C)CO)C[C@H](C)[C@H](CN(C)S(=O)(=O)c1cccs1)O2 | inactive: 1.01
C[C@@H]1CN([C@@H](C)CO)C(=O)c2c(c3ccccc3n2C)-c2ccccc2CO[C@H]1CN(C)C(=O)Nc1cccc(F)c1 | inactive: 1.03
